Laboratory results published in paper PMC4102803.
Numbering of substitutions follows the chain as printed. Results are given in words; binding and its absence hold for the method and conditions named. Binding seen in cells or lysates may run through a third protein. Some binding calls cover weakened binding; strength is not graded here. Sequences can lack the tags named with a protein.

Sequences of proteins named here, by UniProt entry; tags and fusion partners are left off. A change or cut given only in a name is not applied to a line headed by its entry.
UniProt Q9UJU6: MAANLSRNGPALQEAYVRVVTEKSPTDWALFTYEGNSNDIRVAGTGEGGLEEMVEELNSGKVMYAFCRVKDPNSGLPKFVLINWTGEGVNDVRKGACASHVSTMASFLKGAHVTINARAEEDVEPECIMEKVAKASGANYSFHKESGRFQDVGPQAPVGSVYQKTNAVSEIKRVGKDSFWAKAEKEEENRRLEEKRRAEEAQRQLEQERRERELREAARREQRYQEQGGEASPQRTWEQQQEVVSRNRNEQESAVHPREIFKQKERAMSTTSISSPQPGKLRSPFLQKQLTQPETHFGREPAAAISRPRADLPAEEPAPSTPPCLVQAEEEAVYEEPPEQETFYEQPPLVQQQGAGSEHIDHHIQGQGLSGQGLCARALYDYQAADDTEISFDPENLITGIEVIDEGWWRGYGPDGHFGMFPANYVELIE

Assays:
His-14-3-3τ [1] = biological target: T1, His-14-3-3τ (UniProt P27348); test: pull-down; His pull-down: HEK293 cells co-transfected with His-14-3-3 and HIP-55, lysed after 48 h (1% NP-40, 137 mM NaCl, 60 mM imidazole, phosphatase inhibitors); nickel-charged resin 2 h at 4°C; washes with 500 mM NaCl; Western blot; in Figure 1C lysates with or without phosphatase inhibitors and in Figure 1D with or without Calyculin A for 0.5 h at room temperature
T1 sequence: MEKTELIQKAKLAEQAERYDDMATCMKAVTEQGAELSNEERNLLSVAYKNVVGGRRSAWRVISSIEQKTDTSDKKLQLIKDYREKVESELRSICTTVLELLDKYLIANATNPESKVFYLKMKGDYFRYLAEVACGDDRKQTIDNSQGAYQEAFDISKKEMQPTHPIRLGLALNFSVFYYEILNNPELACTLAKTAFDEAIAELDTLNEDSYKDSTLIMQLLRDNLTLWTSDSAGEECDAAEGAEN

His-14-3-3τ [2] = biological target: T1, His-14-3-3τ; test: pull-down; R18 competition: HEK293 cells co-transfected with HIP-55 and 14-3-3τ, harvested after 36 h and incubated 30 min at 4°C with DMSO alone or R18; His pull-down; Western blot
hexa-histidine-14-3-3γ = biological target: T2, hexa-histidine-14-3-3γ (UniProt P61981); test: pull-down; His pull-down: HEK293 cells co-transfected with His-14-3-3 and HIP-55, lysed after 48 h (1% NP-40, 137 mM NaCl, 60 mM imidazole, phosphatase inhibitors); nickel-charged resin 2 h at 4°C; washes with 500 mM NaCl; Western blot; in Figure 1C lysates with or without phosphatase inhibitors and in Figure 1D with or without Calyculin A for 0.5 h at room temperature
T2 sequence: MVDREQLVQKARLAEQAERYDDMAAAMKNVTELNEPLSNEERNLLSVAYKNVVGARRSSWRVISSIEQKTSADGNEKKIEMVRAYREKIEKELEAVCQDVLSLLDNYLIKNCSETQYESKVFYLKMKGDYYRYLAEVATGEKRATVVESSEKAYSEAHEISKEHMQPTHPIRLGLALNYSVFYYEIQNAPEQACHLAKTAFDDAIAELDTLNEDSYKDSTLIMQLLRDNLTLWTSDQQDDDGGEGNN

[3] = biological target: T3, hexa-histidine-14-3-3γ/K50E (UniProt P61981); test: as above
T3 sequence: T2 sequence with K50E

binding (His-14-3-3τ [1]) | binding (His-14-3-3τ [2]) | binding (hexa-histidine-14-3-3γ) | binding [3] | Substance
no binding | – | – | – | HIP-55/S269D/T291D (DD) (from UniProt Q9UJU6 1-430)
no binding | – | – | – | HIP-55/S269A/T291A (AA) (from UniProt Q9UJU6 1-430)
binds | binds | binds | no binding | GST-HIP-55 wild type (from UniProt Q9UJU6 1-430)
